About 14,000 (4.5%) of roughly 310,000 compounds showed an effect of 50% or more. The effect is printed as a negative number. The list shows a part of the results.
Biological target: human ether-à-go-go-related gene (hERG) potassium channel (human, UniProt Q12809)
Experiment: primary screen, population patch clamp on CHO cells stably expressing hERG
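Also: peak tail current of the secondary pulse compared with the same well before compound.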

Sequence of human ether-à-go-go-related gene (hERG) potassium channel (Q12809 whole entry, looked up): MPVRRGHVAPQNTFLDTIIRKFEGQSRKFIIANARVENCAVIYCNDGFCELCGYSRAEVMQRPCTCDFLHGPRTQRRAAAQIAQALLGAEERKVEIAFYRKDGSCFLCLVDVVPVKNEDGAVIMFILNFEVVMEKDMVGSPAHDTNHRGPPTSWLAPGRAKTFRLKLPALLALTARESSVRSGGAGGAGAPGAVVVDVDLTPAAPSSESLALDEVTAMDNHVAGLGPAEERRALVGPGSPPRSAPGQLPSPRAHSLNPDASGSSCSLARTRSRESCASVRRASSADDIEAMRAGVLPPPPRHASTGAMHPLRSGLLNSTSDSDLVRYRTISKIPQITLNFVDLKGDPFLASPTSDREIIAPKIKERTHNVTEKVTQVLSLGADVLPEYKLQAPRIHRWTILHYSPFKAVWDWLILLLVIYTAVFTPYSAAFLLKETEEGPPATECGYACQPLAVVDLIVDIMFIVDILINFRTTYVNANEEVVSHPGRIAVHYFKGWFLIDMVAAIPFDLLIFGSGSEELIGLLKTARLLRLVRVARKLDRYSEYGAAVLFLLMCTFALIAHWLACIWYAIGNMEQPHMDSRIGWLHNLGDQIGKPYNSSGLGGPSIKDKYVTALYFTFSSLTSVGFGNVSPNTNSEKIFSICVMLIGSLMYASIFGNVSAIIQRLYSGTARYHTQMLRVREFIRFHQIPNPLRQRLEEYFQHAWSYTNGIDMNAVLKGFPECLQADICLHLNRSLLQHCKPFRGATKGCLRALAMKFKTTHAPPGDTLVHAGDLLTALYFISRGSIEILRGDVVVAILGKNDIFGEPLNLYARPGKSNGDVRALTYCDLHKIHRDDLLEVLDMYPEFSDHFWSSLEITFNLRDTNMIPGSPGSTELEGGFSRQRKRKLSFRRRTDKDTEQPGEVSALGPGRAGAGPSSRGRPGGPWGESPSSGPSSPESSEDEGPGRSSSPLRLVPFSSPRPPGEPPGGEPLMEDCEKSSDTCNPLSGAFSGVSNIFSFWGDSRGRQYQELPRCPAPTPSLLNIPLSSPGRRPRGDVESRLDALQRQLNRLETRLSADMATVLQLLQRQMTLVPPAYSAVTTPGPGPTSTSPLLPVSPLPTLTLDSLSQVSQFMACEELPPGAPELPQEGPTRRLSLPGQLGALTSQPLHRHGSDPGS

SMILES | hERG current change (%, negative = inhibition) at 10uM
Cc1ccc(C)c(Cn2cnc3c(cnn3C(C)(C)C)c2=O)c1 | 10.4%
CCCC1C2C(=O)N(c3ccc(OC)cc3)C(=O)C2ON1c1ccccc1 (centres unmarked) | 11%
CCOc1ccc2nc(SCc3cccc(C)c3)nc(C)c2c1 | 4.91%
OCCN1CCN(C(=S)c2ccc(Cl)cc2)CC1 | -0.452%
CN(C)CCN(C(=O)c1ccc2c(c1)OCCO2)c1nc2ccc(Cl)cc2s1.Cl | -1.19%
CCOC(=O)C1=C(N)Oc2cc(C)[nH]c(=O)c2C1c1ccncc1 (centres unmarked) | 11.9%
O=c1[nH]c(=S)[nH]c(O)c1N=Nc1ccc(S(=O)(=O)N2CCc3ccccc32)cc1 | 14.4%
CCC(C)(C)NC(=O)C(c1ccc(OC)cc1)N(C(=O)CCC(=O)Nc1cc(C)on1)c1ccc2c(c1)OCO2 (centres unmarked) | -4.27%
COc1ccc2c(c1)C(C)=CC(C)(C)N2C(=O)Nc1ccccc1 | -14.9%
CCCCc1nnc(NC(=O)c2oc3ccccc3c2C)s1 | 1.56%
Cc1ccc(-c2nnc3cccc(Cl)n23)cc1 | 2.55%
Cc1cc(C)c(OCC(=O)N2CCN(c3ncc(C(F)(F)F)cc3Cl)CC2)c(C)c1 | -16.1%
COc1ccc(/C=N/NC(=O)CCn2cnc(-c3ccccc3)c2-c2ccccc2)cc1OC | -9.58%
COc1ccc2nc(N3CCN(C(=O)C4COc5ccccc5O4)CC3)sc2c1 (centres unmarked) | -61.2%
CCOC(=O)CNC(=O)CCNS(=O)(=O)c1ccc2c(c1)c(=O)n(C)c(=O)n2C | 4.99%
CCCNC(=O)c1cc(-c2ccco2)on1 | 14.4%
CC(OC(=O)c1ccccc1NS(=O)(=O)c1cccc(C(F)(F)F)c1)C(=O)N(C)Cc1ccccc1 (centres unmarked) | -0.956%
O=C1Nc2cc3c(cc2Sc2ccccc21)OCCO3 | -8.31%
CCc1noc(C)c1C(=O)N1CCN(S(=O)(=O)c2cccs2)CC1 | -23.5%
CCn1nc(C)cc1C(=O)N1CCCC(C(=O)c2ccc3ccccc3c2)C1 (centres unmarked) | -21.9%
Cc1nn(-c2cc(N3CCCC3)ccc2[N+](=O)[O-])c(=O)c2ccccc12 | 1.89%
Cc1ccc(C)c(OCCC(=O)Nc2ccc3c(c2)OCO3)c1 | -6.41%

SMILES | hERG current change (%, negative = inhibition) at 10uM
Cn1cccc1Cc1nnc(SCC(=O)NC2CCCCC2)n1CCc1ccccc1 | -28.2%
COc1cc(-c2nc(S(=O)(=O)c3ccc(Cl)cc3)c(N(C)C)o2)cc(OC)c1OC | 8.5%
COc1cc(/C=C2\SC(=O)N(CC(=O)Nc3ccccc3F)C2=O)cc(Cl)c1O | 17.3%
Cn1nc(C(=O)N2CCN(S(=O)(=O)c3ccccc3)CC2)c2ccccc2c1=O | -23%
CCOC(=O)C1=C(C)N(CCCC(=O)O)C(=O)NC1c1ccc(Cl)cc1Cl (centres unmarked) | 20.7%
O=C(NCc1ccc(F)cc1)C1CC(=O)N(C2CCCCC2)C1 (centres unmarked) | -2.47%
O=C1/C(=C/c2cccnc2)SC(=NCc2ccccc2)N1Cc1ccccc1 | 2.55%
Nc1c(C(=O)O)ccc2c1C(=O)c1ccccc1C2=O | 20.5%
Cc1ccc(CNC(=O)c2cc(-c3ccccc3)nn2Cc2cc(C)no2)cc1 | -12.3%
Cn1c(SCC(=O)N2CCCCC2)nc2cccnc21 | 22.2%
COc1ccc(CN2C(=O)c3c(c(C)n(C)c3C)C2C(=O)NC2CCC(C)CC2)cc1 (centres unmarked) | -28.7%
Cc1ccc(S(=O)(=O)N(CCC(=O)O)c2ccccc2)cc1 | -10.5%
NC1=C([N+](=O)[O-])C(c2ccccc2)C2=C(CCCC2=O)O1 (centres unmarked) | 35.2%
O=C1CC(c2ccc(S(=O)(=O)NCc3ccncc3)cc2)CN1 (centres unmarked) | -12.9%
COc1nc(NC(C)C)nc(N(C#N)CN2C(=O)c3ccccc3S2(=O)=O)n1 | -9.97%
O=C(c1cccc(C(F)(F)F)c1)C1CCCN(Cc2cccn2-c2ncccn2)C1 (centres unmarked) | -95.7%
Cc1cccc(NC(=O)CCN2CCCC(C)C2)c1.Cl (centres unmarked) | 1.45%
CC1CN(C(=O)CCC(=O)NCc2ccccc2)c2ccccc2O1 (centres unmarked) | 0.256%
CCn1c(SC(C)C(=O)O)nnc1-c1cccnc1 (centres unmarked) | -0.674%
c1ccc2nc3ccccc3nc2c1 | 6.03%
CCN(CC)CCn1c(=S)[nH]c2cc(C(=O)N3CC=C(c4ccccc4)CC3)ccc2c1=O | -31%
CCCN1C(=O)/C(=C\C=C2/Sc3ccccc3N2CCO)SC1=S | 13.3%

— PMC4336329 (PLoS ONE, 2015)
